# Results from PubChem BioAssay (NCATS).
# Where “and” joins values, the source holds several entries; their conditions need not be identical. Equal values may be shown once. The shares of active, inactive and inconclusive entries below differ from those in the screen. A potency beside an inconclusive call is a rough fit, not a confirmed value. Calls of active or inactive are those of the source. Calls come from the whole dose curve; as a rule, active = well fitted curve in the direction sought with a large enough effect; inconclusive = small, poorly fitted or top-dose-only effect, or another doubt; inactive = no such curve, though single readings can be large; an effect the other way counts as inactive or inconclusive.
# Tests used:
# [1] = tested on: NIH3T3; experiment: Cytotoxic Profiling of Annotated Libraries Using Quantitative High-Throughput Screening (AID 1296008); details: Five cell lines viability, CellTiter-Glo ATP luminescence, 48-72 h; max response: stronger effect = lower value; note: nearly all actives have a fitted effect of over 60% in size
# Outline: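 Cytotoxicity was measured as CellTiter-Glo ATP luminescence, read after 10 min at room temperature. Compound treatment of the cells lasted 48 or 72 hr at 37 degrees Celsius in a qHTS format.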
# [2] = tested on: MCC-13; experiment: qHTS assay to identify novel small-molecules to repurpose for Merkel cell carcinoma treatment (AID 1296009); details: MCC and control cell lines, CellTiter-Glo viability, 72 h; series mostly up to 46 µM; note: nearly all actives have a fitted effect of over 60% in size
# Outline: (§1)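 After compound transfer in DMSO, plates were kept 72 hr at 37 degree celsius. Luminescent ATP signal from CellTiter-Glo served as viability measure, normalized against DMSO and no-cell controls.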
# [3] = tested on: MCC-26; experiment: as above; details: MCC and control cell lines, CellTiter-Glo viability, 72 h; series mostly up to 46 µM
# Outline: as §1
# [4] = tested on: MKL-1; experiment: as above; details: MCC and control cell lines, CellTiter-Glo viability, 72 h; series mostly up to 46 µM
# Outline: as §1
# [5] = tested on: UISO; experiment: as above; details: MCC and control cell lines, CellTiter-Glo viability, 72 h; series mostly up to 46 µM
# Outline: as §1
# [6] = tested on: MKL-2; experiment: as above; details: MCC and control cell lines, CellTiter-Glo viability, 72 h; activity change, negative = cytotoxicity: at 46 µM (top of the series)
# Outline: as §1
# [7] = tested on: CAOV3; experiment: Primary qHTS to identify gynecologic anti-cancer compounds using libraries of approved drugs and bioactive compounds (AID 1345084); details: Gynecologic cancer cell panel viability, ATPlite luminescence, 48 h; series mostly up to 57.5 µM; note: nearly all actives have a fitted effect of over 55% in size
# Outline: (§2)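 Five-point cytotoxicity, 48 h drug exposure at 37 C, 5% CO2, on cells seeded 16 h beforehand. ATP content read by ATPlite luminescence.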
# [8] = tested on: WaGa; experiment: qHTS assay to identify novel small-molecules to repurpose for Merkel cell carcinoma treatment (AID 1296009); details: MCC and control cell lines, CellTiter-Glo viability, 72 h; series mostly up to 46 µM; note: nearly all actives have a fitted effect of over 60% in size
# Outline: as §1
# [9] = tested on: C33A; experiment: Primary qHTS to identify gynecologic anti-cancer compounds using libraries of approved drugs and bioactive compounds (AID 1345084); details: Gynecologic cancer cell panel viability, ATPlite luminescence, 48 h; series mostly up to 57.5 µM; note: nearly all actives have a fitted effect of over 55% in size
# Outline: as §2
# % is set by controls: 0 for no effect and ±100 for the full control effect; potency is the fitted concentration of half-maximal effect; tags give direction and shape of the fitted curve.
smiles,measurement,setting,value
COC1=C2C[C@@H](C)C[C@H](OC)[C@@H](O)[C@@H](C)C=C(C)[C@H](OC(N)=O)[C@@H](OC)C=CC=C(C)C(=O)NC(=CC1=O)C2=O,Potency,[1],active: 9.35 µM
same,Potency,[2],"inconclusive: 29.6 µM [inhibitor, single point]"
same,Potency,[3],"inconclusive: 23.5 µM [inhibitor, single point]"
same,Potency,[4],active: 11.8 µM
same,Potency,[5],"inconclusive: 26.4 µM [inhibitor, single point]"
Oc1ccc([C@@H]2Oc3ccc(O)cc3[C@@H]3CCC[C@@H]32)cc1,Potency,[1],"inconclusive: 26.4 µM [inhibitor, single point]"
same,Potency,[2],"inconclusive: 37.2 µM [inhibitor, single point]"
same,"activity change, negative = cytotoxicity",[6],inconclusive: -33.6% [inhibitor]
CCN(CC)CCOc1ccc(Cc2ccccc2)cc1,Potency,[1],"inconclusive: 23.7 µM [inhibitor, single point]"
same,Potency,[6],"inconclusive: 21.1 µM [inhibitor, partial curve] and inactive"
same,Potency,[5],"inconclusive: 18.8 µM [inhibitor, partial curve]"
same,Potency,[7],"inconclusive: 39.8 µM [cytotoxic, single point]"
CC(C)[C@H](O)C(=O)N[C@@H](C)C(=O)N[C@@H]1C(=O)N(C)CCc2ccccc21,max response,[1],inactive: -3.15%
CN(C)CCCC1(c2ccc(F)cc2)OCc2cc(C#N)ccc21 (centres undefined),max response,[1],inactive: -3.81% and inactive: 4.08%
COc1cc2c(N3CCN(C(=O)Nc4ccc(OC(C)C)cc4)CC3)ncnc2cc1OCCCN1CCCCC1,Potency,[1],"inconclusive: 23.5 µM [inhibitor, partial curve, poor fit] and inconclusive: 29.9 µM [inhibitor, single point]"
same,Potency,[2],inactive
same,Potency,[6],"inconclusive: 26.6 µM [inhibitor, single point]"
same,Potency,[5],inactive
COCCOc1ccc2c(c1)ncn2-c1ccc2cccc(N3CCC(N)CC3)c2n1,Potency,[1],"inconclusive: 2.91 µM [inhibitor, full curve]"
same,Potency,[2],"inconclusive: 23.5 µM [inhibitor, single point]"
same,Potency,[3],"inconclusive: 23.5 µM [inhibitor, single point]"
same,Potency,[6],"inconclusive: 33.2 µM [inhibitor, single point]"
same,Potency,[5],active: 26.4 µM
same,Potency,[8],active: 20.9 µM
same,Potency,[9],"inconclusive: 20 µM [cytotoxic, single point]"
same,Potency,[7],"inconclusive: 28.2 µM [cytotoxic, single point]"
CN(C)c1nc(Cc2ccc(NC(=O)c3ccc4ccccc4c3)cc2)nc(Cl)c1CC(=O)O,max response,[1],inactive: 2.84% and inactive: 3.57%
same,Potency,[9],inactive
C=CC[C@@H]1C=C(C)C[C@H](C)C[C@H](OC)[C@H]2O[C@@](O)(C(=O)C(=O)N3CCCC[C@H]3C(=O)O[C@H](C(C)=C[C@@H]3CC[C@H](O)[C@H](OC)C3)[C@@H](C)[C@@H](O)CC1=O)[C@@H](C)C[C@@H]2OC,Potency,[2],"inconclusive: 8.33 µM [inhibitor, single point]"
same,Potency,[4],"inconclusive: 11.8 µM [inhibitor, single point]"
same,Potency,[6],"inconclusive: 0.833 µM [inhibitor, full curve]"
same,Potency,[5],"inconclusive: 1.48 µM [inhibitor, partial curve, poor fit]"
same,Potency,[8],"inconclusive: 0.833 µM [inhibitor, full curve, poor fit]"
N#CC(=C(N)Sc1ccc(N)cc1)c1ccccc1C(F)(F)F,Potency,[2],"inconclusive: 11.8 µM [inhibitor, partial curve]"
same,Potency,[4],inactive
FC(F)(F)c1ccc(C=Cc2nc(COc3ccc(CCCCn4ccnn4)cc3)co2)cc1,Potency,[2],active: 10.5 µM
same,Potency,[3],"inconclusive: 16.6 µM [inhibitor, partial curve]"
same,Potency,[4],active: 0.0235 µM
same,Potency,[6],"inconclusive: 3.72 µM [inhibitor, partial curve, poor fit]"
same,Potency,[5],active: 0.0264 µM
COc1cccc(Nc2c(C(N)=O)cnc3c(C)cc(S(=O)(=O)c4cccc(C(=O)N(C)C)c4)cc23)c1,Potency,[1],"inconclusive: 20.6 µM [inhibitor, single point]"
same,Potency,[7],"inconclusive: 25.1 µM [rising, single point]"
C1=CCOCc2cc(ccc2OCCN2CCCC2)Nc2nccc(n2)-c2cccc(c2)OCC1,Potency,[2],"inconclusive: 26.4 µM [inhibitor, single point]"
same,Potency,[3],active: 9.35 µM
Cc1cccc(-c2[nH]c(C(C)(C)C)nc2-c2ccc3c(c2)OCO3)n1,Potency,[2],"inconclusive: 16.6 µM [inhibitor, partial curve]"
same,Potency,[3],"inconclusive: 16.6 µM [inhibitor, partial curve]"
same,Potency,[5],active: 1.32 µM
same,Potency,[8],active: 2.64 µM
O=C(CN1C(=O)C2(CCCC2)NC[C@H]1c1cc(F)cc(F)c1)Nc1ccc2c(c1)C[C@@]1(C2)C(=O)Nc2ncccc21,Potency,[2],inactive
